{
  "source": "paper PMC11476435",
  "about": "“Functional Relationships between L1CAM, LC3, ATG12, and Aβ” (International Journal of Molecular Sciences, 2024)",
  "biological_target": "recombinant human LC3B (microtubule-associated protein 1 light-chain 3) (human, UniProt Q9GZQ8)",
  "assay": "ELISA; competition: recombinant LC3B, ATG12 or Aβ1-42 coated; L1Fc in solution alone or with a 20-fold molar excess of Aβ, L1-LIR peptide or mutated LIR peptide as competitor, 1 h at room temperature; detected with HRP-coupled anti-Fc antibody",
  "settings": "both partners purified",
  "data": [
    {"binder": "L1Fc, extracellular domain of mouse L1 fused to Fc from human IgG (Fc fusion, The methods say that the Fc fusion presents dimers, not monomeric domains; also called extracellular domain of L1; soluble L1Fc chimera; source: recombinant, production and purification described in [111]) not shown", "values": [
      {"measurement": "binding result", "value": "binds"}
    ]}
  ]
}
